Measured values reported in the RNAGym collection of RNA variant scans (doi:10.7554/elife.90254).
Read counts are not given, so values of variants with three or more changes are uncertain.

B1: LINE1-full (parent)
chain: UACGUAGGUGGUUUUCCCCUGAUAGUGCUAAGGGGGCCUGGAAGUUUGGACUGGGCAGAGCUCAACACAGCGUGGCAAAGUGGCUGUGGCUAGACUGCCUCUCUGGAUUCCUCGUCACUCAGCAGGGCAUCUCUGAGAGAAAUGCC

Variants of: B1
Test: self-cleavage, relative activity (ratio to wild type); higher = more cleavage; in vitro, sequencing; the parent is a self-cleaving ribozyme

Row | Variant | self-cleavage
1 | U46A U87A U134A | 0.07
2 | U47C A50G U52A U102C | 1.84
3 | U45A A94G A138U | 0.38
4 | U45G A69U C113U | 0.07
5 | U46C G93A C99U C113U U115C | 0.06
6 | U46C C116A U119C | 1.43
7 | U46C A78G U112C | 1.26
8 | U47C A50U U132A | 0
9 | U46C A50U U73A C131U | 1.7
10 | U45A A79U A121G | 1.8
11 | U46A A67G U81A A121U A140G | 0.18
12 | U46C A79U U112C | 0
13 | U46C G58U C116U G125U | 0.03
14 | U45C A59U A136G | 1.28
15 | U45C A64U U119A | 0.5
16 | U45C G48A U91G | 0.01
17 | U45A U52C U109C | 0.82
18 | U47C A57U A67C | 0
19 | U46C U62C A107G | 0.26
20 | U47A A50G A69U A140U | 0
21 | U46A U47A U96C | 0.2

Row | Variant | self-cleavage
22 | U45G U52A U102G U132C | 0.61
23 | U45C A50G G114A | 1.58
24 | U46C A69G U104C | 0
25 | U45C A59U A64G U132C A138G | 0.28
26 | U45G A64G A124G | 0.15
27 | U45C U96C U143C | 0.24
28 | U45C U85A U143A | 0.08
29 | U45C U47C U85C A141G | 0.23
30 | U46C U132C A138G | 1.15
31 | U47A A92U A129G U130C | 0.19
32 | U45C A65G U104C | 0
33 | U45C U81C A94U | 0
34 | U45A U47C A64U A77U U143C | 0.51
35 | U45C A138U A142U | 0.64
36 | U46A U100G C120U | 1.55
37 | U45C U115C A142G | 2.49
38 | U46A A50G A92G A140G | 0.08
39 | G44A U81C G93U U102C A121G A140U | 0.03
40 | U45C G114A A117G | 1.75
41 | U45C U119C G135U | 0.95
42 | U47C A64U A79G U130C | 0.33

Row | Variant | self-cleavage
43 | U45C A69U U73C | 0.14
44 | U45A A92G G125U | 0.03
45 | U46C U100A A117G | 0.54
46 | U46C G54A G74U A121U | 1.41
47 | U46A U73C A138C | 1.9
48 | A43U U115C C116U | 1.42
49 | U45C U87A U112A A129G | 0.12
50 | U46A U85C A141G | 0.04
51 | U45A C116U A124G A138G | 0.56
52 | U46A A57G C84U | 0.09
53 | U45C A50U G58U G93U U134C A140G | 0
54 | U46A A64U C113A U143C | 0.37
55 | U47A U62C U100C A117G | 0.06
56 | U46C C51A A59U | 1.07
57 | A43U U47G A124G | 0.49
58 | U45A U46G G114A A140G | 1.48
59 | U46A A94G A138G C145U | 0.34
60 | U46C G54U U100A U109G A141G | 0.25
61 | U45A U46C A124U | 1.5
62 | G44A G89A C116A | 0.07
63 | U47C A64G A65U U115C A138U | 0

Row | Variant | self-cleavage
64 | U45C U47A U109C A129G | 1.47
65 | U46C A67U A69G G82A U100C A142G | 0.22
66 | U46A A65U U100C | 0.32
67 | U45C G72A C95A | 0.04
68 | U45C A50G A117U A138G A140C | 2.45
69 | U46C G53A G83A | 0.14
70 | U45C U115A A140G | 1.36
71 | U46C A67G A78G | 0.48
72 | U46C A79G U102A | 1.84
73 | U45G A57U U115C A124G A138U | 0
74 | U47C A78G C113U U130A | 1.48
75 | U45C A79G A138U A141G | 2.1
76 | U45C G53U U96A | 0.07
77 | U47A A78G U96C U102A | 0
78 | U47A U96A A107G A141G | 0.09
79 | U46C A50U U119C U132C | 2.19
80 | U46C A78U U85C A141G | 0.26
81 | U47A U119C A124U U130C | 1.96
82 | U46C U96C A142G | 0.29
83 | U46G U100C U132C A142G | 0.38
